According to PubChem BioAssay AID652104 (National Center for Advancing Translational Sciences (NCATS), 2013):
Hit rate of the full screen: of about 410,000 compounds, about 7,200 (1.8%) were called active. Inconclusive results, whose numbers are uncertain, are shown with a selection of clear calls. Calls follow the shape of the dose curve; as a rule, active = well fitted activation curve with a large enough effect; inconclusive = small, poorly fitted or top-dose-only effect, or another doubt; inactive = no such curve, though single readings can be large or run the other way. Potencies of inconclusive entries are left out as doubtful fits.

Assay: qHTS of TDP-43 Inhibitors; also: nearly all actives have a fitted effect of over 50% in size; as to growth rescue (activation): % of control where 0% means no effect
Details: TDP-43 expressing yeast growth rescue, BacTiter-Glo, 24 h; growth rescue (activation): at 46.1 µM (top of the series) unless noted
Procedure, shortened: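 Yeast expressing TDP-43 (pregrown in raffinose, seeded at OD600=0.02 in galactose medium) exposed to compounds 24 hr at 30 deg C. Growth read by BacTiter-Glo luminescence; rescue of toxicity appears as increased signal.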
Potency is read from the fitted curve at half-maximal effect; tags tell the direction and shape of the fitted curve.

| SMILES | Potency | growth rescue (activation) |
| --- | --- | --- |
| O=c1[nH]cnc2cc(-c3ccccc3)sc12 | inconclusive [activator, partial curve] | – |
| Cc1ccc(C)c(N2CCN(c3c(CN4CCCC4)c(=O)oc4ccccc34)CC2)c1 | inactive | – |
| Cc1cc(C2=NNC(=NC3CC3)SC2)c(C)n1-c1ccccc1 | inactive | – |
| COc1ccccc1CN1CC(C(=O)N(C)Cc2nc(C)cs2)CCC1=O (stereo not drawn) | inactive | – |
| CCC1CN(C(=O)N2CCC(C(=O)Nc3ccccc3F)CC2)c2ccccc2O1 (stereo not drawn) | inconclusive [activator, partial curve] | – |
| Cc1nn(-c2ccccc2)c(OC(=O)c2cccs2)c1S(=O)(=O)c1ccccc1 | inactive | – |
| Cc1nn(C)c(C(=O)N/N=C/c2ccc(Br)cc2)c1Cl | inconclusive [activator, full curve, poor fit] | – |
| CC(C)Oc1ccc(Cn2c(=O)oc3ccccc32)cc1 | inconclusive [activator, partial curve] | – |
| O=C(NNC(=O)c1cc2cc3ccccc3nc2s1)c1cccc(Cl)c1 | inactive | – |
| Cc1cccc(C)c1Nc1nn2c(=O)c3cc4c(cc3nc2s1)OCO4 | inconclusive [activator, partial curve, poor fit] | – |
| CSc1scc2c1-c1nc(SCC(=O)C(C)(C)C)ncc1CC2 | inconclusive [activator, partial curve] | – |
| CC(=O)NC(c1ccc(F)c(F)c1)c1nc(-c2ccccc2C)cs1 (stereo not drawn) | inconclusive [activator, partial curve, poor fit] | – |
| CCOC(=O)c1ccc(N2C(=O)c3n[nH]c(-c4ccco4)c3C2c2ccc(C)cc2)cc1 (stereo not drawn) | inconclusive [activator, full curve, poor fit] | – |
| COc1ccc(N(C(=O)c2ccncc2)S(=O)(=O)c2cccs2)cc1 | inconclusive [activator, single point] | – |
| O=C(c1cnn(C(=O)c2ccccc2F)c1)c1ccccc1O | inconclusive [activator, single point] | – |
| COc1ccc2[nH]c3c(c2c1)CCN1C(=O)C(CC(=O)NCCC2=CCCCC2)C[C@H](C(=O)N(C(C)C)C(C)C)[C@@]31C (stereo partly drawn) | inconclusive [activator, single point] | – |
| CCc1ccc(S(=O)(=O)N(C(=O)c2ccncc2)c2ccc3oc(C)c(C(=O)OC)c3c2)cc1 | active: 20 µM | – |
| C=CCN1C(=O)C(O)(CC(=O)c2ccc(Cl)cc2)c2ccccc21 (stereo not drawn) | inactive | – |
| COc1ccc2sc(N(Cc3cccnc3)C(=O)c3ccc4c(c3)OCCO4)nc2c1 | inconclusive [activator, full curve, poor fit] | – |
| CCOc1cc(/C=C(\CC(=O)O)c2nc3ccccc3s2)ccc1OC | – | inconclusive: -57.5% [activator] |
| Cc1cccc(-n2cc(-c3ccccc3)c3c(N4CCOCC4)ncnc32)c1 | inconclusive [activator, single point] | – |
| CC1CCN(C(=O)CN(c2ccc(Oc3ccccc3)cc2)S(C)(=O)=O)CC1 | active: 12.6 µM | – |

| SMILES | Potency | growth rescue (activation) |
| --- | --- | --- |
| Cc1ccc(/C=C/C(=O)OC(C)C(=O)NC2CCCCC2C)o1 (stereo not drawn) | – | inconclusive: 33.1% [activator] |
| COC(=O)c1cc(OC)c(OC)cc1NC(=O)c1c(-c2ccccc2Cl)noc1C | inconclusive [activator, single point] | – |
| O=[N+]([O-])c1ccc(NN=Cc2cc(Br)ccc2O)nc1 | inconclusive [activator, partial curve] | – |
| COc1cccc(NC(C)C(=O)Nc2cc([N+](=O)[O-])ccc2Cl)c1 (stereo not drawn) | active: 11.2 µM | – |
| C=CCOC(=O)C1=C[C@@H](c2cn(C(C)=O)c3ccccc23)C[C@@H](OCc2ccc(CO)cc2)O1 | inconclusive [activator, full curve] | – |
| Cc1cc(C(=O)Nc2ccc(Br)cc2F)n(-c2ccccc2)n1 | inconclusive [activator, single point] | – |
| CC(C)CNc1oc(-c2ccccc2Cl)nc1C#N | inactive | – |
| CCN(CC)C(=O)c1sc2nc(-c3ccc(OC)cc3)cn2c1C | inconclusive [activator, partial curve] | – |
| COc1ccc(-c2c3c(=O)n(C)c(=O)n(C)c3c3c(-c4cccc(C)c4)nc4ccccc4n23)cc1 | active: 15.8 µM | – |
| Clc1ccc(C2Nc3cccc4cccc(c34)N2)cc1 | inconclusive [activator, single point] | – |
| COc1ccc(C(C#N)=Cc2ccc(N(C)CCC#N)cc2)cc1 | inconclusive [activator, partial curve] | – |
| O=c1oc(-c2ccccc2)nc2ccsc12 | inconclusive [activator, single point] | – |
| O/N=C1\CCCc2ccc3ccccc3c21 | active: 11.2 µM | – |
| Cn1c(=O)c2[nH]c(CCCCCCCCc3nc4ccccc4[nH]3)nc2n(C)c1=O | inconclusive [activator, partial curve] | – |
| Cc1ccc(NC(=O)COC(=O)CC2CC3CCC2C3)cc1S(=O)(=O)N1CCOCC1 (stereo not drawn) | inconclusive [activator, partial curve] | – |
| O=C(Nc1ccc(S(=O)(=O)N2CCOCC2)cc1)C1CCN(S(=O)(=O)c2ccc(F)cc2)CC1 | active: 14.1 µM | – |
| Cc1cccc(-n2ccnc2SCC(=O)Nc2ccc(F)cc2F)c1C | inconclusive [activator, single point] | – |
| CCOc1cc(/C=N/NC(=O)c2ccccc2-n2cccc2)ccc1O | inactive | – |
| COC(=O)[C@@]1(Cc2ccc(OC)cc2)[C@H]2c3cc(C(=O)N4CCCC4)n(Cc4ccc(C)c(F)c4F)c3C[C@H]2CN1C(=O)c1ccccc1 | inconclusive [activator, full curve, poor fit] | – |
| CC(C)(C)OC(=O)NCCCCCNC(=O)c1[nH]cnc1C(=O)Nc1ccc(Cl)cc1 | inconclusive [activator, single point] | – |
| Cc1ccc(C)c2c1cc(C)c1nnc(SCC(=O)c3cccs3)n12 | active: 22.4 µM | – |
